Screen size: about 420,000 compounds; about 64,000 (15%) were called active. Inconclusive results, whose numbers are uncertain, are shown with a selection of clear calls. Calls follow the shape of the dose curve; as a rule, active = well fitted inhibition curve with a large enough effect; inconclusive = small, poorly fitted or top-dose-only effect; inactive = flat fitted curve, though single readings scatter. No potency is given beside an inconclusive call; the fits are too rough.
Assay: qHTS for Inhibitors of human tyrosyl-DNA phosphodiesterase 1 (TDP1): qHTS in cells in absence of CPT; also: nearly all actives have a fitted effect of over 55% in size
Conditions: DT40 Tdp1-/- hTDP1 cells, no CPT, ATP luminescence, 48 h; series mostly up to 46.2 µM
Summary of the method: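 A cellular qHTS used chicken DT40 cells lacking endogenous Tdp1 but carrying stably transfected human TDP1. Compounds were applied without camptothecin, and cell growth kinetics were judged by ATP-dependent luminescence after ≥48 hr.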
Potency is read from the fitted curve at half-maximal effect; tags tell the direction and shape of the fitted curve.

Q: With `Cc1ccc(CN(c2ccc(C(=O)N3CCCC3)cc2)S(C)(=O)=O)cc1` as the compound, how does the Potency read?
A: inconclusive [inhibitor, single point]

Q: With `CCOc1ccc(S(=O)(=O)N2CCC(c3ccccc3)CC2)cc1C(=O)O` as the compound, how does the Potency read?
A: inactive

Q: With `Cc1c(C(=O)NCc2ccc(F)cc2)oc2ccc(S(=O)(=O)N3CCCCC3)cc12` as the compound, how does the Potency read?
A: inconclusive [inhibitor, single point]

Q: For `CC1(C)Cc2[nH]c3ccccc3c2C(C)(C)N1`, which Potency is on record?
A: inactive

Q: Which Potency does the source give for `CCOc1ccccc1NC(=O)C(OC(=O)c1ccccc1)c1ccccc1` (stereo unspecified) here?
A: inconclusive [inhibitor, single point]

Q: With `COc1ccc2nc(SC(C)C(=O)NC3CCCC3)[nH]c2c1` (stereo unspecified) as the compound, how does the Potency read?
A: inactive

Q: Which Potency does the source give for `COC(=O)C1=C(N)c2ccccc2C1(C#N)c1ccccc1` (stereo unspecified) here?
A: inconclusive [inhibitor, partial curve, poor fit]

Q: With `CCOC(=O)c1cnc2c(c(C)nn2CC)c1Cl` as the compound, how does the Potency read?
A: inconclusive [inhibitor, single point]

Q: With `CCC(=O)N1CCCc2cc(S(=O)(=O)N3CCN(c4ncccn4)CC3)ccc21` as the compound, how does the Potency read?
A: inconclusive [inhibitor, partial curve]

Q: For `COC(=O)C1(C(=O)OC)c2ccccc2N(S(=O)(=O)c2ccc(C)cc2)C1CC(=O)c1ccccc1` (stereo unspecified), which Potency is on record?
A: inconclusive [inhibitor, single point]

Q: For `CCCCNC(=O)CSc1nc2ccc(NC(=O)CSc3nnc(COc4ccccc4C)n3C)cc2s1`, which Potency is on record?
A: inconclusive [inhibitor, single point]

Q: For `CCC(C(=O)OCC(=O)N(C)c1c(N)n(Cc2ccccc2)c(=O)[nH]c1=O)c1ccccc1` (stereo unspecified), which Potency is on record?
A: inactive

Q: With `CCOC(=O)C1(Cc2cccc(Cl)c2)CCCN(C(=O)c2cccc(C)n2)C1` (stereo unspecified) as the compound, how does the Potency read?
A: inconclusive [inhibitor, single point]

Q: Which Potency does the source give for `Cc1ccc2nc(N(CCCN(C)C)C(=O)c3ccc(S(=O)(=O)N4CCCCCC4)cc3)sc2c1` here?
A: inconclusive [inhibitor, partial curve]

Q: For `CC(=O)Oc1ccc(N2C(=O)C3C(C2=O)C(C(=O)c2ccc(Cl)cc2)N2CCCC32)cc1` (stereo unspecified), which Potency is on record?
A: active: 18.4 µM

Q: For `O=C(NCCN1CCOCC1)c1cccc(S(=O)(=O)N2CCCCC2)c1`, which Potency is on record?
A: inactive

Q: Which Potency does the source give for `COc1ccc(CNC(=O)CN2C(=O)C3CCCN3c3ncc(Cl)cc32)cc1` (stereo unspecified) here?
A: inconclusive [inhibitor, partial curve]

Q: For `COCCN(Cc1ccccc1)C(=S)Nc1ccc(OC(F)F)cc1`, which Potency is on record?
A: inconclusive [inhibitor, single point]

Q: With `Cc1nc2c(N=Nc3ccccc3F)c(N)nn2c(N)c1C#N` as the compound, how does the Potency read?
A: inactive

Q: With `CCc1cccc(NC(=O)CCc2nc3cccnc3n2Cc2ccc(OC)cc2)c1` as the compound, how does the Potency read?
A: inconclusive [inhibitor, partial curve]

Q: With `CCOC(=O)Cc1ccc(NC(=O)Nc2c[nH]c(=O)[nH]c2=O)cc1` as the compound, how does the Potency read?
A: inactive

Q: For `Cc1cc(OCc2nn[nH]n2)c2c(C)c(CC(=O)O)c(=O)oc2c1`, which Potency is on record?
A: inactive

Q: With `Cc1cc2nc(-c3cccc(Cl)c3)c(CC(C)(C)C)n2c(C)c1Br` as the compound, how does the Potency read?
A: inconclusive [inhibitor, single point]

Q: Which Potency does the source give for `O=C(NC1CCCCC1)C(c1ccnc2ccccc12)n1c(=O)c(-c2ccco2)nc2ccccc21` (stereo unspecified) here?
A: active: 13 µM

Q: For `COc1cc(C)ccc1OCCOc1cc(C)ccc1Cl`, which Potency is on record?
A: inconclusive [inhibitor, single point]

Q: For `CCOc1cc(C(N)=O)cc(Cl)c1OCc1ccccc1`, which Potency is on record?
A: inactive

Q: Which Potency does the source give for `CN(C)c1ccc(/C=C/c2sc3ccccc3[n+]2CCCCBr)cc1` here?
A: active: 0.316 µM

Q: With `CN(C(=O)CCc1nc(-c2ccccc2F)no1)c1ccc(Cl)cc1` as the compound, how does the Potency read?
A: inconclusive [inhibitor, single point]

Q: With `COC(=O)N1CCC2(CC1)CCN(c1cccc(-c3ccccc3)c1)CC2` as the compound, how does the Potency read?
A: inconclusive [inhibitor, single point]

Q: With `Cc1cccc(NC(=S)NCC2CCCO2)c1` (stereo unspecified) as the compound, how does the Potency read?
A: inactive

Q: For `CCOc1ccc(NC(=O)CCC(=O)Nc2cc(OC)c(NC(=O)c3ccco3)cc2OC)cc1`, which Potency is on record?
A: inactive

Q: Which Potency does the source give for `COc1ccc(/C=N/Nc2ccccc2C(=O)O)cc1` here?
A: inactive

Q: With `CCN(CC)S(=O)(=O)c1ccc(NC(=O)[C@@H](NC(=O)c2cc(OC)cc(OC)c2)C(C)C)cc1` as the compound, how does the Potency read?
A: inconclusive [inhibitor, single point]

Q: Which Potency does the source give for `Cc1ccc(NC(=O)c2nc(S(C)(=O)=O)ncc2N(Cc2ccc(C(C)(C)C)cc2)Cc2ccco2)cc1C` here?
A: inconclusive [inhibitor, single point]

Q: Which Potency does the source give for `CN(C)C1=NCCN1CCCC1CCCCC1` here?
A: inconclusive [inhibitor, single point]

Q: For `C#Cc1ccc([C@@H]2C=C(C(=O)N3CCN(Cc4ccccc4)CC3)O[C@H](OCC)[C@H]2CCCO)cc1`, which Potency is on record?
A: active: 23.1 µM

Q: With `CC(NC(=O)COc1ccc(/C=N/NS(=O)(=O)c2ccccc2)cc1)c1ccccc1` (stereo unspecified) as the compound, how does the Potency read?
A: inconclusive [inhibitor, partial curve, poor fit]

Q: With `O=C(Cn1nc(-c2ccccc2)oc1=O)OCC(=O)c1ccc(F)c(F)c1` as the compound, how does the Potency read?
A: inactive

Q: For `CC(C)c1cccc(C(C)C)c1OCCCCCN1CCOCC1`, which Potency is on record?
A: inconclusive [inhibitor, single point]

Q: Which Potency does the source give for `COc1ccc(C2=Nc3ccccc3N(C(=O)c3cccnc3)C2C(=O)NC(C)(C)C)cc1` (stereo unspecified) here?
A: inactive

Q: For `COc1ccccc1-n1c(O)c(C=NCc2ccccn2)c2ccccc2c1=O`, which Potency is on record?
A: inactive

Q: For `Cc1noc(C)c1S(=O)(=O)N(C)C[C@H]1OCc2cnnn2CCCC(=O)N([C@H](C)CO)C[C@H]1C`, which Potency is on record?
A: inactive

Q: With `O=C(Nc1ncc2c(n1)-c1ccccc1OC2)c1ccc(Cl)cc1Cl` as the compound, how does the Potency read?
A: inactive

Q: Which Potency does the source give for `CCc1cccc(NC(=O)C2CCCN(c3ncnc4onc(-c5ccc(F)cc5)c34)C2)c1` (stereo unspecified) here?
A: active: 10.3 µM

Q: With `Cc1ccc(NC(=O)CCNC(=O)c2ccccc2Cl)cc1S(=O)(=O)N1CCCCCC1` as the compound, how does the Potency read?
A: inconclusive [inhibitor, single point]

Q: Which Potency does the source give for `O=C(COC(=O)c1cccnc1Cl)NCc1ccc(F)cc1` here?
A: inactive
